# According to the supplement of paper PMC11741623:
# The other results are listed elsewhere or left out. Interaction screen of human proteins with wild-type SARS-CoV-2 proteins by split-DHFR complementation in yeast, 1 µg/mL methotrexate. Value = fitness of the pair (three or more lineages) minus that of the viral protein without a human partner, on a scale set by negative (0) and fused positive (1) controls, mean of up to three cultures; higher = more likely to interact. Active = false discovery rate below 0.05 (one-sided t-test) in at least one culture. Nearly all pairs are not hits, and differences among them are mostly noise (correlation between cultures about 0.3); most hits were seen in one culture only. Human sequences are the Swiss-Prot entries looked up by gene name; the clone may be another isoform. NSP2 values were corrected by the authors for a growth advantage. Listed are human proteins with a hit and a random twelfth of the others.
# B1: MRM1, Q6IN84 (protein)
# chain: MALLSTVRGATWGRLVTRHFSHAARHGERPGGEELSRLLLDDLVPTSRLELLFGMTPCLLALQAARRSVARLLLQAGKAGLQGKRAELLRMAEARDIPVLRPRRQKLDTMCRYQVHQGVCMEVSPLRPRPWREAGEASPGDDPQQLWLVLDGIQDPRNFGAVLRSAHFLGVDKVITSRRNSCPLTPVVSKSSAGAMEVMDVFSTDDLTGFLQTKAQQGWLVAGTVGCPSTEDPQSSEIPIMSCLEFLWERPTLLVLGNEGSGLSQEVQASCQLLLTILPRRQLPPGLESLNVSVAAGILLHSICSQRKGFPTEGERRQLLQDPQEPSARSEGLSMAQHPGLSSGPEKERQNEG
# B2: BOC, Q9BWV1 (protein)
# chain: MLRGTMTAWRGMRPEVTLACLLLATAGCFADLNEVPQVTVQPASTVQKPGGTVILGCVVEPPRMNVTWRLNGKELNGSDDALGVLITHGTLVITALNNHTVGRYQCVARMPAGAVASVPATVTLANLQDFKLDVQHVIEVDEGNTAVIACHLPESHPKAQVRYSVKQEWLEASRGNYLIMPSGNLQIVNASQEDEGMYKCAAYNPVTQEVKTSGSSDRLRVRRSTAEAARIIYPPEAQTIIVTKGQSLILECVASGIPPPRVTWAKDGSSVTGYNKTRFLLSNLLIDTTSEEDSGTYRCMADNGVGQPGAAVILYNVQVFEPPEVTMELSQLVIPWGQSAKLTCEVRGNPPPSVLWLRNAVPLISSQRLRLSRRALRVLSMGPEDEGVYQCMAENEVGSAHAVVQLRTSRPSITPRLWQDAELATGTPPVSPSKLGNPEQMLRGQPALPRPPTSVGPASPQCPGEKGQGAPAEAPIILSSPRTSKTDSYELVWRPRHEGSGRAPILYYVVKHRKVTNSSDDWTISGIPANQHRLTLTRLDPGSLYEVEMAAYNCAGEGQTAMVTFRTGRRPKPEIMASKEQQIQRDDPGASPQSSSQPDHGRLSPPEAPDRPTISTASETSVYVTWIPRGNGGFPIQSFRVEYKKLKKVGDWILATSAIPPSRLSVEITGLEKGTSYKFRVRALNMLGESEPSAPSRPYVVSGYSGRVYERPVAGPYITFTDAVNETTIMLKWMYIPASNNNTPIHGFYIYYRPTDSDNDSDYKKDMVEGDKYWHSISHLQPETSYDIKMQCFNEGGESEFSNVMICETKARKSSGQPGRLPPPTLAPPQPPLPETIERPVGTGAMVARSSDLPYLIVGVVLGSIVLIIVTFIPFCLWRAWSKQKHTTDLGFPRSALPPSCPYTMVPLGGLPGHQASGQPYLSGISGRACANGIHMNRGCPSAAVGYPGMKPQQHCPGELQQQSDTSSLLRQTHLGNGYDPQSHQITRGPKSSPDEGSFLYTLPDDSTHQLLQPHHDCCQRQEQPAAVGQSGVRRAPDSPVLEAVWDPPFHSGPPCCLGLVPVEEVDSPDSCQVSGGDWCPQHPVGAYVGQEPGMQLSPGPLVRVSFETPPLTI
# B3: TEX28, O15482 (protein)
# chain: MVLKAEHTRSPSATLPSNVPSCRSLSSSEDGPSGPSSLADGGLAHNLQDSVRHRILYLSEQLRVEKASRDGNTVSYLKLVSKADRHQVPHIQQAFEKVNQRASATIAQIEHRLHQCHQQLQELEEGCRPEGLLLMAESDPANCEPPSEKALLSEPPEPGGEDGPVNLPHASRPFILESRFQSLQQGTCLETEDVAQQQNLLLQKVKAELEEAKRFHISLQESYHSLKERSLTDLQLLLESLQEEKCRQALMEEQVNGRLQGQLNEIYNLKHNLACSEERMAYLSYERAKEIWEITETFKSRISKLEMLQQVTQLEAAEHLQSRPPQMLFKFLSPRLSLATVLLVFVSTLCACPSSLISSRLCTCTMLMLIGLGVLAWQRWRAIPATDWQEWVPSRCRLYSKDSGPPADGP
# Target: SARS-CoV-2 E
# Experiment: yeast fitness gain over the viral ORF with no human partner (scaled fitness); higher = more likely to interact
# Protocol: (§1)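 Split mouse DHFR complementation in pooled diploid yeast: human ORFeome clones carry one fragment and viral ORFs the other; barcoded lineages compete in 1 µg/mL methotrexate and fitness is read by barcode sequencing in up to three cultures.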
row,Binder,yeast fitness gain
1,B1,inactive: -0.0483
2,B2,inactive: -0.00555
3,B3,inactive: -0.0664

# Target: SARS-CoV-2 M
# Experiment: as above
# Protocol: as §1
row,Binder,yeast fitness gain
1,B1,inactive: -0.0363
2,B2,inactive: -0.125
3,B3,inactive: 0.063

# Target: SARS-CoV-2 N
# Experiment: as above
# Protocol: as §1
row,Binder,yeast fitness gain
1,B1,inactive: 0.0365
2,B3,inactive: -0.00709

# Target: SARS-CoV-2 NSP1
# Experiment: as above
# Protocol: as §1
row,Binder,yeast fitness gain
1,B1,inactive: -0.0072
2,B2,inactive: -0.0461
3,B3,inactive: -0.0344

# Target: SARS-CoV-2 NSP10
# Experiment: as above
# Protocol: as §1
row,Binder,yeast fitness gain
1,B1,inactive: 0.0962
2,B2,inactive: -0.0989
3,B3,inactive: 0.00372

# Target: SARS-CoV-2 NSP12
# Experiment: as above
# Protocol: as §1
row,Binder,yeast fitness gain
1,B1,inactive: -0.00805
2,B2,inactive: -0.0222
3,B3,inactive: 0.0359

# Target: SARS-CoV-2 NSP13
# Experiment: as above
# Protocol: as §1
row,Binder,yeast fitness gain
1,B1,active: 0.105
2,B2,inactive: -0.0411
3,B3,inactive: 0.0117

# Target: SARS-CoV-2 NSP14
# Experiment: as above
# Protocol: as §1
row,Binder,yeast fitness gain
1,B1,inactive: -0.00206
2,B3,inactive: 0.0653

# Target: SARS-CoV-2 NSP15
# Experiment: as above
# Protocol: as §1
row,Binder,yeast fitness gain
1,B1,inactive: 0.00296
2,B2,inactive: 0.0554
3,B3,inactive: -0.0139

# Target: SARS-CoV-2 NSP16
# Experiment: as above
# Protocol: as §1
row,Binder,yeast fitness gain
1,B1,inactive: 0.019
2,B2,inactive: -0.0461
3,B3,inactive: -0.14

# Target: SARS-CoV-2 NSP2
# Experiment: as above
# Protocol: as §1
row,Binder,yeast fitness gain
1,B1,inactive: -0.118
2,B2,inactive: -0.113
3,B3,inactive: -0.0709

# Target: SARS-CoV-2 NSP4
# Experiment: as above
# Protocol: as §1
row,Binder,yeast fitness gain
1,B1,inactive: -0.178
2,B3,inactive: 0.168

# Target: SARS-CoV-2 NSP5
# Experiment: as above
# Protocol: as §1
row,Binder,yeast fitness gain
1,B1,inactive: 0.0721
2,B2,inactive: 0.118
3,B3,inactive: 0.0698

# Target: SARS-CoV-2 NSP6
# Experiment: as above
# Protocol: as §1
row,Binder,yeast fitness gain
1,B1,inactive: 0.0223
2,B3,inactive: -2e-05

# Target: SARS-CoV-2 NSP7
# Experiment: as above
# Protocol: as §1
row,Binder,yeast fitness gain
1,B1,inactive: -0.0514
2,B2,inactive: 0.0905
3,B3,inactive: -0.0655

# Target: SARS-CoV-2 NSP8
# Experiment: as above
# Protocol: as §1
row,Binder,yeast fitness gain
1,B1,inactive: 0.0447
2,B2,inactive: 0.0336
3,B3,inactive: -0.0077

# Target: SARS-CoV-2 NSP9
# Experiment: as above
# Protocol: as §1
row,Binder,yeast fitness gain
1,B1,inactive: 0.0792
2,B2,inactive: 0.0491
3,B3,inactive: 0.084

# Target: SARS-CoV-2 ORF10
# Experiment: as above
# Protocol: as §1
row,Binder,yeast fitness gain
1,B1,inactive: 0.0304
2,B2,inactive: 0.0357
3,B3,inactive: -0.056

# Target: SARS-CoV-2 ORF3A
# Experiment: as above
# Protocol: as §1
row,Binder,yeast fitness gain
1,B1,inactive: 0.0386
2,B2,inactive: 0.058
3,B3,inactive: 0.111

# Target: SARS-CoV-2 ORF3B
# Experiment: as above
# Protocol: as §1
row,Binder,yeast fitness gain
1,B1,inactive: -0.0252
2,B2,inactive: 0.0259
3,B3,inactive: 0.0369

# Target: SARS-CoV-2 ORF6
# Experiment: as above
# Protocol: as §1
row,Binder,yeast fitness gain
1,B1,inactive: 0.0551
2,B2,inactive: -0.132
3,B3,inactive: 0.029

# Target: SARS-CoV-2 ORF7A
# Experiment: as above
# Protocol: as §1
row,Binder,yeast fitness gain
1,B1,inactive: -0.0061
2,B2,inactive: -0.0504
3,B3,inactive: 0.106

# Target: SARS-CoV-2 ORF7B
# Experiment: as above
# Protocol: as §1
row,Binder,yeast fitness gain
1,B1,inactive: 0.0263
2,B2,inactive: 0.00531
3,B3,inactive: -0.0132

# Target: SARS-CoV-2 ORF8
# Experiment: as above
# Protocol: as §1
row,Binder,yeast fitness gain
1,B1,inactive: 0.0134
2,B2,inactive: -0.0868
3,B3,inactive: -0.00436

# Target: SARS-CoV-2 ORF9B
# Experiment: as above
# Protocol: as §1
row,Binder,yeast fitness gain
1,B1,inactive: -0.00754
2,B2,inactive: 0.033
3,B3,inactive: -0.0357

# Target: SARS-CoV-2 ORF9Bwu (the 73-codon ORF)
# Experiment: as above
# Protocol: as §1
row,Binder,yeast fitness gain
1,B1,inactive: 0.054
2,B2,inactive: 0.0609
3,B3,inactive: 0.0506

# Target: SARS-CoV-2 S
# Experiment: as above
# Protocol: as §1
row,Binder,yeast fitness gain
1,B1,inactive: -0.0127
2,B2,inactive: -0.0753
3,B3,inactive: 0.0263
